The structures appear in SMILES notation. About 2,200 (0.71%) of roughly 310,000 compounds showed an effect of 50% or more. The effect is printed as a negative number. The list shows a part of the results.

For this assay, the target named is human ether-à-go-go-related gene (hERG) potassium channel (human, UniProt Q12809). Nature of the assay: primary screen, population patch clamp on CHO cells stably expressing hERG.
human ether-à-go-go-related gene (hERG) potassium channel, sequence (Q12809 whole entry, looked up): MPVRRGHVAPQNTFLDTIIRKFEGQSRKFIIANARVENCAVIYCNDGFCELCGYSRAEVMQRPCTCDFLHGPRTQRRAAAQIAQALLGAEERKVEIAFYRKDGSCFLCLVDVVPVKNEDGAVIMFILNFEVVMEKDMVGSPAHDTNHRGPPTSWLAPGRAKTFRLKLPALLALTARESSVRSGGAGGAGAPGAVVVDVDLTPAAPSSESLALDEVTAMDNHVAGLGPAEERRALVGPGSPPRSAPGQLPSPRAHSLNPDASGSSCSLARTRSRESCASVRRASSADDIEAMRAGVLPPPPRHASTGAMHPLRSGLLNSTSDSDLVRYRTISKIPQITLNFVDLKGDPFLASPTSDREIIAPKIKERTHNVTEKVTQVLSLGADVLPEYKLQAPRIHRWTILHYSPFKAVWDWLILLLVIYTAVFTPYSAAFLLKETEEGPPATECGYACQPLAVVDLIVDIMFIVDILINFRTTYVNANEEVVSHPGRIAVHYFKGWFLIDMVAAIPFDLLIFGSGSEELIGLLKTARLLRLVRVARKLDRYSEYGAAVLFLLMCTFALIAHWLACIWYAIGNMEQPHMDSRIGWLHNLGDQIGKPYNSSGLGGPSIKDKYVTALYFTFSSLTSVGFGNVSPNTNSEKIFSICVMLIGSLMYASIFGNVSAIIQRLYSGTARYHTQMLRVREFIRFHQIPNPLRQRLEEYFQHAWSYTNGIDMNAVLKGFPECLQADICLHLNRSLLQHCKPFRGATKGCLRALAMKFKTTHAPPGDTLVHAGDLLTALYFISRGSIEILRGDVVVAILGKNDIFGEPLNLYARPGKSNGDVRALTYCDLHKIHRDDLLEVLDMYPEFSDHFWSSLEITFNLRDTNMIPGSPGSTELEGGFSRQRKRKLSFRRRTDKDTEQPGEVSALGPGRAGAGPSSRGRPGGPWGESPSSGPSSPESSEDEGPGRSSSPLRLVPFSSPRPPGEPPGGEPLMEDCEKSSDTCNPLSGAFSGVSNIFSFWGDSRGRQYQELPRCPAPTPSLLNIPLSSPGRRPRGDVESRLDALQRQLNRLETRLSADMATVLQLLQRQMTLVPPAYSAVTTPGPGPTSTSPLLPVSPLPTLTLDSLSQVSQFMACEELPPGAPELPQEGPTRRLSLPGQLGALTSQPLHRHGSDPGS
In the case of `Cc1c(NS(=O)(=O)c2cc(C(=O)NCc3cccnc3)cc(Cl)c2Cl)c(=O)n(-c2ccccc2)n1C`, the “hERG current change (%, negative = inhibition) at 1uM” value turned out to be 11.3%.
The same measure for `Cc1cc(=O)n2nc(N3CCC(C(=O)Nc4c(F)c(F)c(F)c(F)c4F)CC3)sc2n1`: 10.4%; for `COCCCNc1nc(N)c([N+](=O)[O-])c(NCC2CCCO2)n1` (centres unmarked): 13.4%; for `CCn1c(=O)n(CC)c2cc(N3CCCC3)c(NC(=O)c3ccccc3OC)cc21`: 11.7%.
Turning to `O=C(Cn1c(=O)sc2ccccc21)NCc1ccccn1`, the “hERG current change (%, negative = inhibition) at 1uM” value was 8.34%.
The same measure for `CCOc1cc(CNc2ccccc2)cc(Br)c1OCc1ccccc1F`: 9.97%; for `O=c1[nH]c2cccc(F)c2n2cccc12`: 11.7%.
The same measure for `O=C(CN1CCCCC1)Nc1cccc(Br)c1`: -18.1%; for `O=c1nc(-c2ccccc2)n(-c2ccccc2)[nH]1`: 10.2%; for `Cc1ccc(C(=O)c2c3ccc(C(F)(F)F)cc3[n+]([O-])n2CCC[NH3+])cc1.O=C([O-])C(F)(F)F`: -64.4%.
Consider `COc1ccc(N(C(=O)C(C)C)S(=O)(=O)c2ccc(Cl)cc2)cc1`, for which the “hERG current change (%, negative = inhibition) at 1uM” value is given as -14.7%.
In the case of `c1ccc(Cn2cnc3ccccc32)cc1`, the “hERG current change (%, negative = inhibition) at 1uM” value came to 12.4%.
Regarding `COc1cccc(-c2nc(CS(=O)(=O)CC(=O)N3CCN(c4ccccn4)CC3)c(C)o2)c1`, the “hERG current change (%, negative = inhibition) at 1uM” value worked out at 1.26%.
For the compound `Cc1ccsc1C(=O)N1CC(=O)Nc2ccccc21`, the “hERG current change (%, negative = inhibition) at 1uM” value turned out to be 19.4%.
On to `O=C(C(=O)N1CCCc2ccccc21)c1c[nH]c2ccccc12`, for which the “hERG current change (%, negative = inhibition) at 1uM” value is recorded as 11.2%.
As to `CC(=O)c1ccc(NC(=O)Nc2ccccc2)cc1`, the “hERG current change (%, negative = inhibition) at 1uM” value was 5.89%.
The same measure for `O=C(COC(=O)c1ccc(Br)o1)Nc1ccc2[nH]c(=O)[nH]c2c1`: 5.73%; for `COc1ccccc1CN(Cc1cc2cc(C)ccc2[nH]c1=O)Cc1nnnn1CC1CCCO1` (centres unmarked): 1.87%.
With `Cc1ccc(S(=O)(=O)N2CCN(C(=O)CSc3nncs3)CC2)cc1`, the “hERG current change (%, negative = inhibition) at 1uM” value turned out to be 5.48%.
For the compound `O=C(COc1ccccc1F)N1CCc2ccccc2C1`, the “hERG current change (%, negative = inhibition) at 1uM” value is given as -16.8%.
As for `CCOc1ccc2nc(NC(=O)CN3CCN(C)CC3)sc2c1`, the “hERG current change (%, negative = inhibition) at 1uM” value is on record as -1.48%.
As to `COc1cccc(NC(=O)c2nn(C34CC5CC(CC(C5)C3)C4)cc2[N+](=O)[O-])c1`, the “hERG current change (%, negative = inhibition) at 1uM” value is -0.515%.
In the case of `COc1ccc(C(=O)OCC(=O)c2c(N)n(C)c(=O)n(C)c2=O)cc1OC`, the “hERG current change (%, negative = inhibition) at 1uM” value was 6.56%.
For the compound `CC(C)c1ccc(S(=O)(=O)N2CCN(C(C)C(=O)NC3CCCC3)CC2)cc1` (centres unmarked), the “hERG current change (%, negative = inhibition) at 1uM” value was -4.92%.
`C=CCSc1nc(N)c(C(=O)Nc2ccccc2OC)cc1C(=O)Nc1ccccc1`: the “hERG current change (%, negative = inhibition) at 1uM” value was 4.49%.
As for `Cl.c1ccc(-c2ccc(OCCN3CCOCC3)cc2)cc1`, the “hERG current change (%, negative = inhibition) at 1uM” value amounted to 11.9%.
Take `CCOC(=O)c1c(C=O)c2ccccc2n1Cc1ccccc1F`: the “hERG current change (%, negative = inhibition) at 1uM” value turned out to be 9.37%.
As for `COCc1c(C(=O)OCC(=O)Nc2ccc(OC(F)F)cc2)oc2ccccc12`, the “hERG current change (%, negative = inhibition) at 1uM” value amounted to 7.56%.
Consider `O=C(c1ccc(Cl)cc1)N1CCN(S(=O)(=O)/C=C/c2ccccc2)CC1`, for which the “hERG current change (%, negative = inhibition) at 1uM” value is on record as -6.77%.
With `N#C/C(=C\c1cccc2ccccc12)c1nn(-c2ccccc2)c(N)c1C#N`, the “hERG current change (%, negative = inhibition) at 1uM” value is on record as 5.93%.
As for `Cc1nc(C(F)(F)F)c(C(=O)N/N=C(\N)c2ccccn2)s1`, the “hERG current change (%, negative = inhibition) at 1uM” value is recorded as 5.96%.
In the case of `COc1ccc(-c2nnc(SCC(=O)NCCC(C)C)nc2-c2ccc(OC)c(OC)c2)cc1OC`, the “hERG current change (%, negative = inhibition) at 1uM” value was 1.34%.
The same measure for `c1ccc(Oc2nnc(-c3cccs3)c3ccccc23)cc1`: -8.42%; for `O=c1c(-c2ccco2)[n+]([O-])c2ccccc2n1OCc1c(F)cccc1F`: 13.1%.
With `C/C(N)=C(/C#N)C(=O)COC(=O)CCSc1ccccc1`, the “hERG current change (%, negative = inhibition) at 1uM” value was 16.3%.
The same measure for `O=c1[nH]c(=S)n(-c2ccccc2F)c(O)c1C=NCCN1CCNCC1`: 12.5%; for `Cc1cccc(CNCCc2ccccc2)n1.Cl`: 1.19%.
For `Cc1cc(C)c(C(=O)COC(=O)C2CCN(c3ccc(C(F)(F)F)cn3)CC2)cc1C`, the “hERG current change (%, negative = inhibition) at 1uM” value was 8.71%.
For `COC(=O)c1cn(Cc2ccccn2)c(=O)c2ccccc12`, the “hERG current change (%, negative = inhibition) at 1uM” value came to 5.73%.
As for `O=C(NCc1ccc(OC(F)(F)F)cc1)c1ccc2c(c1)S(=O)(=O)c1ccccc1C2=O`, the “hERG current change (%, negative = inhibition) at 1uM” value was found to be 0.355%.
For `Cl.Nc1cccc2[nH]c(C(F)(F)F)nc12`, the “hERG current change (%, negative = inhibition) at 1uM” value was 14.6%.
Consider `COc1ccc(N=Cc2sc3ccccc3c2Cl)cc1`, for which the “hERG current change (%, negative = inhibition) at 1uM” value is 16.6%.
For the compound `CCN1CCN(c2ccc(S(=O)(=O)N3CCCCC3)cc2NC(=O)/C=C/c2ccc([N+](=O)[O-])cc2)CC1`, the “hERG current change (%, negative = inhibition) at 1uM” value turned out to be 6.53%.
With `Cc1cc(C)c2cc(C#N)c(SCC(=O)Nc3ccc4c(c3)OCO4)nc2c1` the figure was 13.7%; with `COc1ccccc1NC(=O)c1cn(CCC#N)nc1-c1cccc(Cl)c1`, 13.6%; with `Cc1nc(SCC(=O)NCC(F)(F)F)c2c(-c3cccs3)csc2n1`, 5.71%.
In the case of `O=C(CSc1nnnn1-c1ccccc1)Nc1ccccc1`, the “hERG current change (%, negative = inhibition) at 1uM” value is recorded as 17.9%.
Take `CC(C)OC(=O)CCCNc1ccc([N+](=O)[O-])cc1[N+](=O)[O-]`: the “hERG current change (%, negative = inhibition) at 1uM” value worked out at 3.75%.
With `OCCN1CCN(c2ncnc3sc(-c4ccccc4)cc23)CC1` the figure was 3.72%.
As to `COc1ccc(NC(=O)N/C=C/c2ccco2)cc1`, the “hERG current change (%, negative = inhibition) at 1uM” value worked out at 14.7%.
Take `CC(=O)O.CNc1nc(N/N=C/c2cc3c(cc2[N+](=O)[O-])OCO3)nc(Nc2ccccc2)n1`: the “hERG current change (%, negative = inhibition) at 1uM” value is recorded as 12.5%.
In the case of `COc1cccc(C(=O)NCC(=O)OCC(=O)C(C)(C)C)c1`, the “hERG current change (%, negative = inhibition) at 1uM” value is recorded as 8.92%.
With `COCCNC(=O)c1ccccc1NC(=O)COc1ccccc1` the figure was 2.56%; with `COc1ccccc1CNC(=O)N1CCN(c2ccccc2Cl)CC1`, 8.42%; with `COc1ccc(-c2csc(NC(=O)c3ccc(S(C)(=O)=O)cc3)n2)cc1`, 4.87%.
For the compound `Cc1ccc2cc(CN(Cc3cccs3)Cc3nnnn3CC3CCCO3)c(=O)[nH]c2c1` (centres unmarked), the “hERG current change (%, negative = inhibition) at 1uM” value was determined as 8.88%.

(Values after publication PMC4336329 (PLoS ONE, 2015).)
